In all, about 150,000 compounds went through this assay and about 540 (0.36%) showed an effect of 50% or more. The list shows a part of the results.
The compounds below were run on Plasmodium falciparum (assay: Primary screen in NF54 nanoGlo assay, in single point, at 2uM, 72h; a lower Z score goes with more inhibition). Settings: timepoint 72 hour.
Format: functional, Erythrocyte

Structure (SMILES)	% Inhibition	Z score
COc1ncccc1CNC(=O)N1CCN(c2nccs2)CC1	3%	-0.63
CCn1cc(CN2CCC([C@]3(C)NC(=O)N(C4Cc5ccccc5C4)C3=O)CC2)c(C)n1	-11%	1.44
O=C(N[C@@H]1CCCC[C@H]1OC(F)F)c1cnc2n1CCOC2	-8%	1.37
Cc1ccc(CC(=O)N2CC[C@H](CN3CCOC3=O)C2)cc1O	0%	0.04
O=C(COc1ccc(-n2cccn2)cc1)NCC1CCC1	-14%	1.26
CCc1noc(NC(=O)[C@H](C)n2cc(C)cn2)c1C	0%	0.07
CC(C)n1c(-c2nccn2CC2(N(C)C)CCOCC2)nc2ccccc21	-18%	1.81
CC(=O)c1ccc(N2CCN(C(=O)c3ccc(-n4cccn4)nn3)CC2)cc1	-11%	2.14
COCCC1(c2noc([C@@H](C)c3cnn(C)c3)n2)CCCC1	-11%	1.52
COc1ccc(-n2nc(C)c3sc(N4CCCN(C(=O)c5ccc(F)cc5Cl)CC4)nc32)cc1	-16%	1.79
Cc1ccc(NC(=O)CN2C(=O)C(C)(C)c3cc(C)ccc32)c(Br)c1	-9%	1.59
Cc1nc(C(C)(C)NCCOc2ccccc2C(=O)O)sc1C	8%	-0.95
CC(C)c1nnc2n1CCN(Cc1cn(C)nn1)[C@H]2C	-1%	0.08
NCC(=O)N1CCC[C@H](Oc2ccc(Cl)c(Cl)c2)C1	-17%	2.4
O=C1CCCN1CCCN1C(=O)[C@H]2CN(Cc3ccc(F)cc3F)C[C@H]2C1=O	-7%	0.9
CCN1C[C@@H](CN(C)C(=O)c2ccc(-c3ccc4c(c3)OCO4)cc2)CC1=O	8%	-1.04
CC1(C)C[C@@H](c2noc(-c3ccc(F)cc3)n2)CCO1	-7%	1.33
CC(=O)OCc1c(C)n(C)c(=O)n(C)c1=O	37%	-4.76
Cc1cc(C(=O)N[C@@H](C)CO)c(C)n1-c1nccs1	37%	-4.83
N#Cc1ccc(NCCCc2cc[nH]n2)nc1	-3%	0.56
Cc1cccn2cc(CN(C)C[C@H](C)c3nccs3)nc12	-8%	1.47
COC[C@H](C)NCc1cc2cc3c(cc2nc1-c1ccc(F)cc1)OCO3	-8%	1.64
Cn1nc(C(F)(F)F)cc1B1OC(C)(C)C(C)(C)O1	41%	-4.6
CCc1ccc(C2CC(C)CCN2C(=O)c2ccc3[nH]c(=O)[nH]c3n2)o1 (stereo not drawn)	-1%	0.27
CCc1nsc(N[C@H]2CCCc3nn(C)cc32)n1	5%	-0.96
CN(C)[C@H]1CN(C(=O)Nc2cc(C(C)(C)C)ccc2C(C)(C)C)C[C@@H]1O	-19%	3.46
CCCN(CC(=O)N(Cc1ccccc1)Cc1ccc(C)o1)C(=O)Cc1ccc(F)cc1	-9%	1.17

Structure (SMILES)	% Inhibition	Z score
CC1CCCN(S(=O)(=O)N2CCOC3CCCCC32)C1 (stereo not drawn)	-5%	0.77
Cc1cc(C(=O)NC2(c3ncccn3)CCOCC2)c(C)s1	-4%	0.7
Cc1nc(CN(c2cccc(CO)c2)C2Cc3ccccc3C2)no1	-8%	0.64
COC(=O)CC1(NC(=O)Cc2c[nH]c3ccccc23)CCCC1	-3%	0.36
Cc1cccc(C(=O)N2CC(=O)Nc3cnccc32)c1Cl	-14%	1.32
CCNC(=O)N(CCOC)Cc1ccc(N(CC)CC)cc1OS(=O)(=O)c1ccc(OC)cc1	0%	-0.03
NCC(=O)Nc1ccc(-c2ncc3n2CCCC3)cc1	-9%	1.22
Cc1ccc(-n2nc3c(N4CCC(C(=O)NCCCN5CCCCC5)CC4)nnc(C)c3c2C)cc1	20%	-2.35
COCc1ncc(C)n1[C@H]1CCCN(C(=O)c2cnccc2C)C1	-14%	1.72
O=C1NC(=O)[C@H](CCC(=O)N(Cc2ccco2)C2CC2)N1	-9%	1.67
O=C(c1c[nH]c2ccccc12)N1CCN(S(=O)(=O)c2ccc3ccccc3c2)CC1	-15%	1.35
COCCC1(c2noc(C3(C#N)CCCCC3)n2)CCCC1	1%	-0.13
CC[C@@H]1C(=O)NCCCN1C(=O)c1cccc2c1ccn2CC(C)C	-2%	0.26
CC[C@H](C)n1ncc(NC(=O)C(C)(C)C2CCC2)c1C	0%	0
Fc1ccc(-n2nc(Cn3cncn3)nc2C[C@H]2CNCCO2)cc1Cl	-7%	1.23
CCOC(=O)c1cnn(-c2cccc(NS(=O)(=O)c3cc(C)ccc3O)c2)c1C(F)(F)F	-6%	0.66
O[C@H](COc1ccccc1-c1cccnc1)CN1CCOCC1	-10%	1.54
O=C(CCC(=O)N1CCCN(c2nc3cccnc3s2)CC1)Nc1ccccc1Cl	-14%	1.41
O=C(NCC[C@H](O)c1ccoc1)C(=O)NCc1ccc(F)cc1	-8%	0.97
O=S1(=O)CC[C@H](CNc2ccc3ccc(Cl)c(Cl)c3n2)C1	-16%	1.42
COc1cc(NC(=O)CN2CCC3(CC2)N=C(c2ccccc2)C(=O)N3)cc(OC)c1	-15%	1.42
CN1CCCN(C(=O)C(=O)Nc2ccccc2Br)CC1	-1%	0.15
O=C(C(F)F)N(Cc1cccnc1)c1ccc(F)cc1	-34%	3.98
C[C@]1(c2nc(COc3cccc(Cl)c3)nn2CCO)CCCNC1	-4%	0.78
Cc1ccc(CNC(=O)C2CCCCC2)s1	6%	-1.22
CCCNC(=O)[C@H]1CCCN(C(=O)c2nnc(C(=O)Nc3cccc(Cl)c3)s2)C1	7%	-1
CCc1ncc(S(=O)(=O)N2CCCC[C@H]2c2nnc[nH]2)s1	5%	-0.88

Source: ChEMBL document CHEMBL4888484, “Replenishing the malaria drug discovery pipeline: Screening and hit evaluation of the MMV Hit Generation Library 1 (HGL1) against asexual blood stage Plasmodium falciparum ,using a nano luciferase reporter read-out” (2022)
